# Experimental data: PubChem BioAssay AID1468 (National Center for Advancing Translational Sciences (NCATS), 2008)
# The campaign covered roughly 280,000 compounds. About 1,100 (0.39%) were called active. The shares of active, inactive and inconclusive entries below differ from those in the screen. Calls come from the whole dose curve; as a rule, active = well fitted inhibition curve with a large enough effect; inconclusive = small, poorly fitted or top-dose-only effect, or effect the other way; inactive = flat fitted curve, though single readings scatter. No potency is given beside an inconclusive call; the fits are too rough.
# Biological target: Microtubule-associated protein tau (Homo sapiens) (UniProt P10636)
# UniProt P10636, sequence (P10636 whole entry, looked up): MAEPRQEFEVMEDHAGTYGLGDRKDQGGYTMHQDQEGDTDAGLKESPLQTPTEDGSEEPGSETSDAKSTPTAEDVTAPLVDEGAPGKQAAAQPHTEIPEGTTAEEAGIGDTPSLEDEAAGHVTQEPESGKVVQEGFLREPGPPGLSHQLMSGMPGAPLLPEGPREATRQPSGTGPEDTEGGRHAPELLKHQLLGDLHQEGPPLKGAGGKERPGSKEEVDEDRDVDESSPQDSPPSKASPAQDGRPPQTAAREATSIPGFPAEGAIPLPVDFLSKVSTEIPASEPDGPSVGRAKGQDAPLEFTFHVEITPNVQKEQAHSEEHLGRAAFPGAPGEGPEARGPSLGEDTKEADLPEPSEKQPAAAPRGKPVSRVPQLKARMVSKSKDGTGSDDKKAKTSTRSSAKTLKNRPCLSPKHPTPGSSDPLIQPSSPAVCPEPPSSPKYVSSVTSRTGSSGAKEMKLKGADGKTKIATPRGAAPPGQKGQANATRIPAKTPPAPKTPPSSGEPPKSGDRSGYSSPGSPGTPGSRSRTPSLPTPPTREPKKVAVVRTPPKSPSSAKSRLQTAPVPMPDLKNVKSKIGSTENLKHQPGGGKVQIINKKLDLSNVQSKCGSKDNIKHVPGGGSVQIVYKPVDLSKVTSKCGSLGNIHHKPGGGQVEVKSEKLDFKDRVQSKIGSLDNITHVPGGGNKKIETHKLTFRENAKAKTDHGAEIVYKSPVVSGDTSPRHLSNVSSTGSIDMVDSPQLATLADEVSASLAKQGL
# Test: qHTS for Inhibitors of Tau Fibril Formation, Fluorescence Polarization; note: nearly all actives have a fitted effect of over 55% in size
# Conditions: K18 P301L tau heparin fibrillization, Alexa594 FP, 6 h; series mostly up to 57.7 µM
# In short: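 Quantitative HTS format: compounds meet 15 uM recombinant K18 P301L tau and Alexa 594-tau tracer in 100 mM sodium acetate pH 7; 20 uM heparin triggers fibrillization at 37 C over 6 hr; FP gives the signal.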
# Potency is the fitted concentration of half-maximal effect; tags give direction and shape of the fitted curve.
row,SMILES,Potency
1,O=C1CC(=O)N(Cc2ccco2)C(=S)N1,"inconclusive [inhibitor, single point]"
2,CCOc1cc(CNc2ccc3c(c2)OCCO3)cc(Br)c1OC,"inconclusive [activator, single point]"
3,O=C(Nc1ccc(S(=O)(=O)N(Cc2ccccc2)c2ccccc2)cc1)c1ccc(F)cc1,active: 10 µM
4,CCN1CCCC1CNC(=O)Cn1cnc2sc(C)c(S(=O)(=O)N3CCC(C)CC3)c2c1=O (stereo not given),"inconclusive [inhibitor, single point]"
5,CCOC(=O)C1=C(CC)Nc2ccccc2N=C1NC(=O)c1oc2ccccc2c1C,"inconclusive [inhibitor, partial curve, poor fit]"
6,CCO/N=C(/c1nonc1N)N1CCN(c2ccc([N+](=O)[O-])cc2)CC1,inactive
7,COC(=O)C(CCSC)NC(=O)c1cc2c(n(-c3ccccc3)c1=O)CC(C)(C)CC2=O (stereo not given),inactive
8,CN1C(=O)c2ccccc2Sc2ccc(NC(=O)c3ccc(C#N)cc3)cc21,"inconclusive [inhibitor, single point]"
9,Cc1ccc(NCC(=O)c2ccc([N+](=O)[O-])cc2)cc1,"inconclusive [inhibitor, single point]"
10,Cc1cc(C)n(-c2ccc(C(=O)N3CCc4ccccc43)cc2)n1,inactive
11,COC(=O)c1nc2ccc(N3CCOCC3)cc2c(C)c1C(=O)OC,inactive
12,CC(C)CNC1=CC(=O)CC(c2ccco2)C1 (stereo not given),"inconclusive [inhibitor, partial curve]"
13,Cc1ccc(C(=O)N[C@H](C(=O)OCc2cc(=O)n3c(n2)sc2ccccc23)C(C)C)cc1,inactive
14,COc1ccc(Cl)cc1S(=O)(=O)N1CCN(C(=O)c2cc(-c3ccc(Br)cc3)n[nH]2)CC1,"inconclusive [inhibitor, single point]"
15,Cc1cccc(C(=O)Nc2ccc(S(=O)(=O)N3CCCCC3c3cccnc3)cc2)c1 (stereo not given),"inconclusive [inhibitor, partial curve]"
16,Cc1cc(CNC(=O)c2cccc([N+](=O)[O-])c2C)c2ccccc2n1,inactive
17,Cc1cc(NC(=O)CN2CCOCC2)n(-c2ccccc2)n1,inactive
18,COc1ccccc1N1CCN(C(=O)c2ccc3c(c2)CCN3S(=O)(=O)c2ccccc2)CC1,inactive
19,Cc1ccc(SC2=C(Sc3ccc(C)cc3)C(=O)c3ccccc3C2=O)cc1,active: 14.1 µM
20,CC(=O)N(C)C1=C(O)c2ccccc2C(=O)C1=O,"inconclusive [inhibitor, single point]"
